For 69 compounds, nuclei count results are on record in the supplement of paper PMC8183993.

SMILES strings stand for the structures. Where “and” joins values, the source holds several entries; their conditions need not be identical. Equal values may be shown once. Where a name gives a salt, the structure may show the parent alone. ± gives the standard deviation of the averaged measurements. In all, about 3,200 compounds were measured (“nuclei count (viability) relative to DMSO”: median about 99, lowest 2% from about 16 on). Some of the results follow.

In the assay the test system is U2OS. Kind of assay: nuclei count (viability) relative to DMSO (% of DMSO); higher = more viable cells. As to conditions: 10 µM; 24 h. As for the experimental part:
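Primary image-based screen in U2OS cells: compounds at 10 uM for 24 h, then a 1 h o-propargyl-puromycin (OPP) pulse, click labelling, and high-throughput microscopy. Mean cytoplasmic OPP intensity and nuclei count were normalised to DMSO wells within each plate (DMSO = 100) and averaged over triplicate plates.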
Take `O=[N+]([O-])c1cccc2c(Br)[nH]nc12` [3-Bromo-7-nitroindazole]: the nuclei count worked out at 102.

For the compound `CN(C)C(=O)COC(=O)Cc1ccc(OC(=O)c2ccc(NC(=N)N)cc2)cc1` [Camostat Mesilate (FOY-305)], the nuclei count was 98.4.

For the compound `CC(Cc1ccccc1)(NC(=O)CN)c1ccccc1` (centres undefined) [Remacemide hydrochloride], the nuclei count amounted to 94.6.

For `CCCCOC(=O)c1ccc(N)cc1` [Butamben], the nuclei count is 106.

Compound `CN(C)CC[C@H](CSc1ccccc1)Nc1ccc(S(=O)(=O)NC(=O)c2ccc(N3CCN(Cc4ccccc4-c4ccc(Cl)cc4)CC3)cc2)cc1[N+](=O)[O-]` registered a nuclei count of 73.8.

In the case of `C[C@H]1COC2=C1C(=O)C(=O)c1c2ccc2c1CCCC2(C)C` [Cryptotanshinone], the nuclei count came to 99.4.

On to `NC(=O)Cc1cccc(C(=O)c2ccccc2)c1N` [Nepafenac], for which the nuclei count amounted to 106.

In turn, `CCCCC1=NC2(CCCC2)C(=O)N1Cc1ccc(-c2ccccc2-c2nnn[nH]2)cc1` [Irbesartan (Avapro)] gave a nuclei count of 101.

`CC1(C)OC2=C(C(=O)c3ccccc3C2=O)[C@H](NCc2ccccc2)[C@@H]1O`: the nuclei count turned out to be 14.7.

On to `O=[N+]([O-])c1ccc2c(c1)S(=O)(=O)C=C2` [Stattic], for which the nuclei count is 14.1.

As to `N[C@@H]1CCCCN(c2c(F)cc3c(=O)c(C(=O)O)cn(C4CC4)c3c2Cl)C1` [Besifloxacin HCl (Besivance)], the nuclei count was 95.8.

Regarding `CCOc1ccccc1OCC1CNCCO1` (centres undefined) [Viloxazine hydrochloride], the nuclei count came to 99.8.

As for `CC[C@H]1OC(=O)[C@H](C)[C@@H](O[C@H]2C[C@@](C)(OC)[C@@H](O)[C@H](C)O2)[C@H](C)[C@@H](O[C@@H]2O[C@H](C)C[C@H](N(C)C)[C@H]2O)[C@](C)(OC)C[C@@H](C)C(=O)[C@H](C)[C@@H](O)[C@]1(C)O` [Clarithromycin (Biaxin, Klacid)], the nuclei count turned out to be 108.

For `CC[C@H]1OC(=O)[C@H](C)[C@@H](O[C@H]2C[C@@](C)(OC)[C@@H](O)[C@H](C)O2)[C@H](C)[C@@H](O[C@@H]2O[C@H](C)C[C@H](N(C)C)[C@H]2O)[C@](C)(OC)C[C@@H](C)C(=O)[C@H](C)[C@@H](O)[C@]1(C)O` [Clarithromycin], the nuclei count worked out at 105.

With `CNC(=O)[C@@H](Cc1ccccc1)N(C)C(=O)[C@@H](Cc1ccc2ccccc2c1)N(C)C(=O)/C=C/CC(C)(C)N` [Tabimorelin], the nuclei count worked out at 101.

Take `NS(=O)(=O)c1cc2c(cc1Cl)N=CNS2(=O)=O` [Chlorothiazide]: the nuclei count turned out to be 99.6.

`CN[C@H](CC(C)C)C(=O)N[C@H]1C(=O)N[C@@H](CC(N)=O)C(=O)N[C@H]2C(=O)N[C@H]3C(=O)N[C@H](C(=O)N[C@H](C(=O)O)c4cc(O)cc(O)c4-c4cc3ccc4O)[C@H](O)c3ccc(c(Cl)c3)Oc3cc2cc(c3O[C@@H]2O[C@H](CO)[C@@H](O)[C@H](O)[C@H]2O[C@H]2C[C@](C)(N)[C@H](O)[C@H](C)O2)Oc2ccc(cc2Cl)[C@H]1O` [Vancomycin HCl (Vancocin)] gave a nuclei count of 97.5.

In the case of `CN[C@H](CC(C)C)C(=O)N[C@H]1C(=O)N[C@@H](CC(N)=O)C(=O)N[C@H]2C(=O)N[C@H]3C(=O)N[C@H](C(=O)N[C@H](C(=O)O)c4cc(O)cc(O)c4-c4cc3ccc4O)[C@H](O)c3ccc(c(Cl)c3)Oc3cc2cc(c3O[C@@H]2O[C@H](CO)[C@@H](O)[C@H](O)[C@H]2O[C@H]2C[C@](C)(N)[C@H](O)[C@H](C)O2)Oc2ccc(cc2Cl)[C@H]1O` [Vancomycin hydrochloride], the nuclei count was 102.

In turn, `COc1cc2ncnc(Oc3cccc(NC(=O)Nc4cc(C(C)(C)C(F)(F)F)on4)c3)c2cc1OC` registered a nuclei count of 99.7 ± 4.1.

`O=c1c(O)c(-c2ccc(O)c(O)c2)oc2cc(O)ccc12` [Fisetin (Fustel)] registered a nuclei count of 91.7.

Regarding `CNS(=O)(=O)Cc1ccc2[nH]cc(CCN(C)C)c2c1` [Sumatriptan succinate], the nuclei count came out at 101 ± 4.

For the compound `NCC(=O)Nc1ccc(-n2nc(C(F)(F)F)cc2-c2ccc3c(ccc4ccccc43)c2)cc1`, the nuclei count was 34.8 ± 5.6.

For `COc1ccc(-c2nc3cc(C4=NNC(=O)CC4C)ccc3[nH]2)cc1` (centres undefined) [Pimobendan (Vetmedin)], the nuclei count was 85.9.

For the compound `Cc1ccc(S(=O)(=O)n2c(N)nc3ccccc32)cc1`, the nuclei count came to 99.7.

`CNC(=O)c1ccc(-c2cnc3ncc(Cc4ccc5ncccc5c4)n3n2)cc1F` had a nuclei count of 105.

`CC(C)COCC(CN(Cc1ccccc1)c1ccccc1)N1CCCC1` (centres undefined) [Bepridil]: the nuclei count was found to be 109.

Consider `CC(C)COCC(CN(Cc1ccccc1)c1ccccc1)N1CCCC1` (centres undefined) [Bepridil hydrochloride], for which the nuclei count was 101.

The compound `CCC(CC)(CC(=O)Nc1cccc(/C=C/c2nc(C3CCC3)cs2)c1)C(=O)O` [Cinalukast] came in with a nuclei count of 103.

Turning to `NC(=O)c1ncn([C@@H]2O[C@H](CO)[C@@H](O)[C@H]2O)n1` [Ribavirin], the nuclei count was 111.

Consider `NC(=O)c1ncn([C@@H]2O[C@H](CO)[C@@H](O)[C@H]2O)n1` [Ribavirin (Copegus)], for which the nuclei count turned out to be 102.

On to `CCOC(=O)[C@H](CCc1ccccc1)N[C@@H](C)C(=O)N1[C@H](C(=O)O)C[C@@H]2CCC[C@@H]21` [Ramipril], for which the nuclei count was 107.

The compound `CCOC(=O)[C@H](CCc1ccccc1)N[C@@H](C)C(=O)N1[C@H](C(=O)O)C[C@@H]2CCC[C@@H]21` [Ramipril (Altace)] had a nuclei count of 93.2.

As for `CCOc1ccc2c(c1)C(C)=CC(C)(C)N2` [Ethoxyquin], the nuclei count turned out to be 101 ± 1.2.

Consider `CCOc1cc([C@@H](CS(C)(=O)=O)N2C(=O)c3cccc(NC(C)=O)c3C2=O)ccc1OC`, for which the nuclei count came out at 102.

For `NS(=O)(=O)c1cc(C(=O)O)c(NCc2ccco2)cc1Cl` [Furosemide], the nuclei count is 96.1.

Regarding `CCn1nnc2c(N3CCOCC3)nc(-c3ccc(NC(=O)Nc4ccc(C(=O)N5CCN(C)CC5)cc4)cc3)nc21`, the nuclei count is 77.7.

In turn, `O=C(O)C(=O)O.[NH-]C1CCCCC1[NH-].[Pt+2]` (centres undefined) [Oxaliplatin (Eloxatin)] displayed a nuclei count of 77.6.

Consider `CCc1cncnc1N1CCN(Cc2nc3ccc(C(F)(F)F)cc3[nH]2)CC1`, for which the nuclei count is 99.88 ± 0.89.

For `CC1=C(C(=O)OC(C)C)C(c2cccc([N+](=O)[O-])c2)C(C(=O)OC2CN(C(c3ccccc3)c3ccccc3)C2)=C(N)N1` (centres undefined) [Azelnidipine], the nuclei count was found to be 106.

With `Cc1cc(C2CCCCC2)n(O)c(=O)c1` [Ciclopirox ethanolamine], the nuclei count stood at 63.4 ± 7.6.

As to `CCS(=O)(=O)N(C)[C@H]1c2cc(C#N)ccc2OC(C)(C)[C@@H]1O` [(-)-[3R,4S]-Chromanol 293B], the nuclei count was determined as 99.2.

Turning to `COc1cc(C(=O)NS(=O)(=O)c2ccccc2C)ccc1Cc1cn(C)c2ccc(NC(=O)OC3CCCC3)cc12` [Zafirlukast], the nuclei count amounted to 114.

As for `CCCCCCCCCCCCCCCC(=O)NCCO` [Palmitoylethanolamide], the nuclei count turned out to be 96.8.

Compound `CN1CCN(C2=Nc3cc(Cl)ccc3Nc3ccccc32)CC1` [Clozapine] came in with a nuclei count of 101.6 ± 0.41.

In turn, `CO[C@@H](C(=O)N1Cc2[nH]nc(NC(=O)c3ccc(N4CCN(C)CC4)cc3)c2C1)c1ccccc1` showed a nuclei count of 46.9.

In turn, `O=C(O)c1ccccc1Nc1ccccc1` [N-phenylanthranilic acid] registered a nuclei count of 103.

`CC[C@H](C)[C@H](N)C1=N[C@H](C(=O)N[C@@H](CC(C)C)C(=O)N[C@H](CCC(=O)[O-])C(=O)N[C@H](C(=O)N[C@H]2CCCCNC(=O)[C@H](CC(N)=O)NC(=O)[C@@H](CC(=O)[O-])NC(=O)[C@H](Cc3cnc[nH]3)NC(=O)[C@@H](Cc3ccccc3)NC(=O)[C@H]([C@@H](C)CC)NC(=O)[C@@H](CCCN)NC2=O)[C@@H](C)CC)CS1.[Zn+2]` [Bacitracin zinc] displayed a nuclei count of 109.

Compound `C[C@@H]1NC(=O)NC1=O` [Methylhydantoin-5-(L)] had a nuclei count of 101.

Turning to `CC1CCc2c(N3CCC(O)CC3)c(F)cc3c(=O)c(C(=O)O)cn1c23` (centres undefined) [Nadifloxacin], the nuclei count was determined as 104.

Compound `CCCc1c(OCCCCc2nnn[nH]2)ccc(C(C)=O)c1O` displayed a nuclei count of 102.

Compound `Cc1ccc(-c2ncc(Cl)cc2-c2ccc(S(C)(=O)=O)cc2)cn1` [Etoricoxib] returned a nuclei count of 93.8.

As for `CC1(C)C(=O)NC2=C1C(=O)C(=O)c1ccccc12`, the nuclei count was 40.5 and 19.2.

For the compound `NC12CC3CC(CC(C3)C1)C2` [Adamantamine fumarate], the nuclei count is 105.

Compound `CC1(C2CCCC2)Cc2cc(OCC(=O)O)c(Cl)c(Cl)c2C1=O` (centres undefined) came in with a nuclei count of 102.

In turn, `O=c1c2ccccc2oc2ccccc12` [Xanthone (Genicide)] came in with a nuclei count of 102.

`CO[C@H]1O[C@@H]2O[C@@]3(C)CC[C@H]4[C@H](C)CC[C@@H]([C@H]1C)[C@@]24OO3` [Artemether (SM-224)] showed a nuclei count of 86.

For `Cc1[nH]c2ccccc2c1C(Nc1ccccn1)c1ccc(Cl)cc1` (centres undefined), the nuclei count stood at 93.9.

`Cc1cc(=O)n(-c2ccccc2)n1C` [Antipyrine] gave a nuclei count of 98.5.

Take `CC(C)[C@@H](O)CC[C@@H](C)[C@H]1CC[C@H]2[C@@H]3CC=C4C[C@@H](O)CC[C@]4(C)[C@H]3CC[C@]12C` [24(S)-Hydroxycholesterol]: the nuclei count came out at 87.5.

Regarding `Clc1ccc(COC(Cn2ccnc2)c2ccc(Cl)cc2Cl)c(Cl)c1` (centres undefined) [Miconazole], the nuclei count is 103.

In the case of `Nc1ncn([C@H]2C[C@H](O)[C@@H](CO)O2)c(=O)n1` [Decitabine], the nuclei count came to 102.

As for `NCCCCNCCCN` [Spermidine trihydrochloride], the nuclei count is 94.4.

Take `NCCCCNCCCN` [Spermidine]: the nuclei count amounted to 104.

`CC(C)(C(=O)c1cccnc1)c1cccnc1` [Metyrapone] registered a nuclei count of 93.2.

As for `O=C(Cc1ccc(-c2ccc(OCCN3CCOCC3)cc2)cn1)NCc1ccccc1`, the nuclei count came to 21.3.

On to `CN1CC(=O)NC1=N` [Creatinine], for which the nuclei count was 99.9.

On to `CC(=O)Nc1ccc(NC(=S)NC(=O)c2ccc(C(C)(C)C)cc2)cc1` [Tenovin-1], for which the nuclei count was 95.7.

`O=c1cc(-c2ccc(O)c(O)c2)oc2cc(O)cc(O)c12` [Luteolin]: the nuclei count is 84.

Compound `CCOC(=O)[C@]12CC1/C(=N\O)c1ccccc1O2` (some centres undefined) yielded a nuclei count of 103.
